Reference: article PMC4336329 (PLoS ONE, 2015)
Out of some 310,000 compounds screened, about 2,200 (0.71%) showed an effect of 50% or more. Effects have a minus sign here. Some of the results follow.

Target: human ether-à-go-go-related gene (hERG) potassium channel (human, UniProt Q12809)
Test: primary screen, population patch clamp on CHO cells stably expressing hERG

Chain of human ether-à-go-go-related gene (hERG) potassium channel (Q12809 whole entry, looked up): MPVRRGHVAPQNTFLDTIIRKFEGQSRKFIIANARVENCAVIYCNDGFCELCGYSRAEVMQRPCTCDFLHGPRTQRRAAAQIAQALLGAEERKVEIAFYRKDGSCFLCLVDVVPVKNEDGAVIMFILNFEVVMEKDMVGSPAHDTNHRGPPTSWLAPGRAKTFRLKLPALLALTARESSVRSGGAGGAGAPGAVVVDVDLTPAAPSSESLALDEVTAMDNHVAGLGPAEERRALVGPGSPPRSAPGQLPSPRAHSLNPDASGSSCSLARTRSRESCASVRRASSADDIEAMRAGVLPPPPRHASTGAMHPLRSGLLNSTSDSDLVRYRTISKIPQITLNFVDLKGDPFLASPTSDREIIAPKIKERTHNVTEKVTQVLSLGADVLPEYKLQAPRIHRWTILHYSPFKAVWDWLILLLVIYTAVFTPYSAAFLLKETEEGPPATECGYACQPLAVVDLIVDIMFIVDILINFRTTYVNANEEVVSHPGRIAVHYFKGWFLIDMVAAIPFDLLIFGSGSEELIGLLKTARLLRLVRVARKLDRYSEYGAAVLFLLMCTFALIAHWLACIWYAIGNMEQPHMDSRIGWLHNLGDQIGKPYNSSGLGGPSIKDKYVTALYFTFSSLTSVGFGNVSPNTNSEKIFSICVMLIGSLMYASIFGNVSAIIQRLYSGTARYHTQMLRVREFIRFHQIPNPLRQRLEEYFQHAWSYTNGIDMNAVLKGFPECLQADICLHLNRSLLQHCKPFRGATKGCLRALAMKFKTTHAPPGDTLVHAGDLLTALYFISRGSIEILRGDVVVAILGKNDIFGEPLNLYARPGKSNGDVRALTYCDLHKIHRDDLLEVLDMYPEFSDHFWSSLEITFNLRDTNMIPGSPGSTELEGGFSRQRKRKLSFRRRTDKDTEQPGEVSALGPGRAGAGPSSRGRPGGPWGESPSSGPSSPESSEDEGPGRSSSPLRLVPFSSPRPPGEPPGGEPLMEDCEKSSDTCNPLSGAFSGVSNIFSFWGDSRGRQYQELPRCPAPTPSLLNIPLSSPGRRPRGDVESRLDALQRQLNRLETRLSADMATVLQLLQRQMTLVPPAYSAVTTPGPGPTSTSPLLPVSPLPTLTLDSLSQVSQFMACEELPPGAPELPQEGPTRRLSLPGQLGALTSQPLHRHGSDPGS

Compared with `CSc1nc(Cl)cc(Nc2ccccc2N)n1`, `COCCSc1ccccc1C(=O)Nc1ccc(Cl)cn1` is lower in “hERG current change (%, negative = inhibition) at 1uM” value: 10.4% for the first, 0.534% for the second.

Going from `Cc1cccc(NC(=O)C2CCN(S(=O)(=O)c3ccc4c(c3)NC(=O)CO4)CC2)c1C` to `Cc1cccc(NC(=O)C2CCCN(S(=O)(=O)c3ccc4[nH]c(=O)ccc4c3)C2)c1` (stereo not drawn), the “hERG current change (%, negative = inhibition) at 1uM” value falls from 15% to 4.13%.

Going from `CCN(CC)CCNC(=O)c1ccc(NC(=O)c2ccccc2-c2ccc(C(F)(F)F)cc2)cc1` to `CCOc1ccc(NC(=O)CN(C)C(=O)c2cn(-c3ccccc3)nc2-c2cccs2)cc1OCC`, the “hERG current change (%, negative = inhibition) at 1uM” value rises from -1.19% to 3.71%.

First: O=C(NCC1OCCc2ccccc21)C1COc2ccccc2O1 (stereo not drawn)
Second: COc1ccc(CNC2CCCc3ccccc32)cc1OC.O=C(O)C(=O)O (stereo not drawn)
The “hERG current change (%, negative = inhibition) at 1uM” value of the first is higher: 10% for the first, 2.67% for the second.

Going from `Oc1c(Br)cc(/C=N/NC(=S)NCc2ccco2)cc1Br` to `O=C(N/N=C/c1cc(Cl)ccc1O)c1cccnc1`, the “hERG current change (%, negative = inhibition) at 1uM” value falls from 21.2% to 15.1%.

First: CC(=O)Nc1cccc(NC(=O)c2oc3ccccc3c2C)c1
Second: Cc1c(C(=O)NC2CCCCC2C)oc2ccccc12 (stereo not drawn)
The “hERG current change (%, negative = inhibition) at 1uM” value of the first is lower: -4.04% for the first, 11.2% for the second.

Going from `COC(=O)c1ccc(NC(=O)CNCc2ccncc2)cc1.O=C(O)C(=O)O` to `O=C(CNCc1ccc(Cl)cc1)Nc1ccc(C(=O)N2CCCCCC2)cc1.O=C(O)C(=O)O`, the “hERG current change (%, negative = inhibition) at 1uM” value falls from 13.9% to 4.84%.

Going from `O=C(O)CCCC(=O)Nc1ccc(N2CCCC2)cc1` to `CCN(CC)CCCNC(=O)CCC(=O)Nc1ccc2nc(N3CCC(C)CC3)cc(C)c2c1`, the “hERG current change (%, negative = inhibition) at 1uM” value falls from 9.63% to 8.55%.

Going from `CCn1c(SCC(=O)N(C)c2c(N)n(Cc3ccccc3)c(=O)[nH]c2=O)nc2ccccc21` to `CN(Cc1ccccn1)C(=O)CC1C(=O)NCCN1Cc1cccc(Oc2ccccc2)c1` (stereo not drawn), the “hERG current change (%, negative = inhibition) at 1uM” value falls from 11.6% to 4.71%.

Going from `Fc1ccc(CNCc2ccccc2Cl)cc1.O=C(O)C(=O)O` to `COc1ccc(S(=O)(=O)N2CCOC2CNC(=O)C(=O)NCc2ccccc2Cl)cc1` (stereo not drawn), the “hERG current change (%, negative = inhibition) at 1uM” value falls from 8.73% to 6.01%.

First: CCC(=O)c1c(O)n(C2CCCCCC2)c(=O)[nH]c1=O
Second: O=C(NCc1ccncc1)c1cc(C(=O)C2CCCCC2)c[nH]1
The “hERG current change (%, negative = inhibition) at 1uM” value of the first is higher: 15.5% for the first, 3.94% for the second.

Going from `Cc1ccccc1-n1c(=O)cc(NCC2CCCO2)[nH]c1=O` (stereo not drawn) to `COc1ccc2oc(=O)c(C(=O)N3CCN(c4ccccc4C)CC3)cc2c1`, the “hERG current change (%, negative = inhibition) at 1uM” value falls from 8.86% to 6.39%.

Going from `Brc1ccc(-c2csc3ncnc(-n4nnc5ccccc54)c23)cc1` to `COc1ccc(-c2cc(-c3cccs3)c(C#N)c(SCC(=O)NCc3ccccc3)n2)cc1`, the “hERG current change (%, negative = inhibition) at 1uM” value rises from 3.56% to 14.4%.

Going from `Cc1ccc(NC(=O)CSc2nnc(-c3cccnc3)s2)cc1` to `CCOc1ccccc1NC(=O)CSc1ccc2nnc(-c3cccnc3)n2n1`, the “hERG current change (%, negative = inhibition) at 1uM” value falls from -0.823% to -12.6%.

Compared with `COc1ccc(OCc2ccc(C(=O)O)cc2)cc1`, `COc1ccc(CC(=O)Nc2ccc(N(C)C)c3ccccc23)cc1` is lower in “hERG current change (%, negative = inhibition) at 1uM” value: 13.5% for the first, 7.73% for the second.

Compared with `O=C(COc1ccc(Cl)cc1Cl)Nn1c(=S)[nH]c2ncccc2c1=O`, `S=c1[nH]nc(-c2ccco2)n1/N=C/c1ccc(Cl)cc1Cl` is lower in “hERG current change (%, negative = inhibition) at 1uM” value: 8.03% for the first, -1.27% for the second.

First: CCC(C)(C)n1nnnc1C(c1cc2ccc(OC)cc2[nH]c1=O)N1CCc2ccccc21 (stereo not drawn)
Second: COc1ccc2[nH]c(=O)c(C(c3nnnn3CC3CCCO3)N3CCCCC3)cc2c1 (stereo not drawn)
The “hERG current change (%, negative = inhibition) at 1uM” value of the first is lower: 6.76% for the first, 16.5% for the second.

Going from `Cc1ccc(S(=O)(=O)N2CCN(Cc3ccco3)CC2)c(C)c1` to `COc1ccc(S(=O)(=O)N2CCN(C)CC2)cc1C`, the “hERG current change (%, negative = inhibition) at 1uM” value falls from 16.2% to 13.5%.

First: CCCCCCCCCCOC(=O)Cn1c(COc2ccc(OC)cc2)[n+](C)c2ccccc21.[Cl-]
Second: COc1ccc(CCn2c(C)nc3ccccc3c2=O)cc1OC
The “hERG current change (%, negative = inhibition) at 1uM” value of the first is lower: -70.9% for the first, 13% for the second.

Compared with `CCCCNC(=O)N(O)C1N(/N=C/c2ccccc2O)C(=S)SC1(C)C` (stereo not drawn), `CCCN1CCN(CCCNC(=O)Cn2ncc3c4ccccc4n(C)c3c2=O)CC1` is lower in “hERG current change (%, negative = inhibition) at 1uM” value: 10.6% for the first, -10.1% for the second.

Going from `Cc1sc2ncnc(N3CCC(C(=O)NNC(=O)COc4ccccc4Cl)CC3)c2c1C` to `COc1cccc(COC(=O)C2CCN(S(=O)(=O)c3ccc(Cl)cc3)CC2)c1OC`, the “hERG current change (%, negative = inhibition) at 1uM” value rises from -0.552% to 5.7%.

Compared with `COc1cccc(CNC(=O)CCC(=O)N2Cc3cccc(OC)c3Oc3ncccc32)c1OC`, `COc1ccc(N2C(=O)c3ccccc3NC2c2ccc(NC(C)=O)cc2)c(OC)c1` (stereo not drawn) is lower in “hERG current change (%, negative = inhibition) at 1uM” value: 10.7% for the first, 7.67% for the second.

First: FC(F)(F)c1ccc(Cl)c(-n2c(-c3cc(C4CC4)[nH]n3)n[nH]c2=S)c1
Second: COc1cc2nc(=S)n3[nH]c(COc4ccccc4C)nc3c2cc1OC
The “hERG current change (%, negative = inhibition) at 1uM” value of the first is lower: 14.4% for the first, 18% for the second.

Compared with `O=C(CCC(=O)N1CCN(c2ccc(Cl)c(Cl)c2)CC1)c1ccccc1`, `CCc1nn(CC(=O)N2CCN(c3ccc(F)cc3)CC2)c(=O)c2cc3occc3n12` is lower in “hERG current change (%, negative = inhibition) at 1uM” value: 12.8% for the first, 4.01% for the second.

First: O=S(=O)(c1ccccc1)N(Cc1ccc(Cl)cc1)c1ccncc1
Second: O=C(CNS(=O)(=O)c1ccccc1)NCC(=O)OCc1ccc(C(=O)c2ccccc2)cc1
The “hERG current change (%, negative = inhibition) at 1uM” value of the first is lower: 8.2% for the first, 12.6% for the second.

Compared with `CCN1CCN(C(=O)c2c(-c3c(F)cccc3Cl)noc2C)CC1.Cl`, `Cc1cc(CNC(=O)Cc2c(F)cccc2Cl)nn1C` is lower in “hERG current change (%, negative = inhibition) at 1uM” value: 8.1% for the first, 2.53% for the second.

First: Fc1cc(F)c(F)c(SCCc2ccncc2)c1F
Second: CC(C)C(NC(=O)c1c(F)cccc1F)C(=O)NCCc1ccc(S(N)(=O)=O)cc1 (stereo not drawn)
The “hERG current change (%, negative = inhibition) at 1uM” value of the first is higher: 12.6% for the first, 9.12% for the second.

Compared with `C=CCNC(=O)NC(=O)COC(=O)CCCSc1nc2ccccc2[nH]1`, `CC1CCCC(NC(=O)COC(=O)CCc2ccccc2)C1C` (stereo not drawn) is lower in “hERG current change (%, negative = inhibition) at 1uM” value: 11.5% for the first, -1.67% for the second.

Going from `CCOc1ccc(S(=O)(=O)NCCC(=O)NC2=NCCS2)cc1` to `CCOc1ccc(N=C2SCCCN2C)cc1.I`, the “hERG current change (%, negative = inhibition) at 1uM” value rises from 5.41% to 8.98%.

First: COC(=O)c1ccc2c(c1)SC1=C(CCCC1=O)N2
Second: COc1ccc(C2CC(=O)c3sc(NC(C)=O)nc3C2)cc1 (stereo not drawn)
The “hERG current change (%, negative = inhibition) at 1uM” value of the first is higher: 11.9% for the first, 9.59% for the second.

Compared with `O=C(COC(=O)c1ccc(OC(F)F)cc1)Nc1cccc(S(=O)(=O)NC2=NCCC2)c1`, `O=C(Nc1ccc2cn[nH]c2c1)c1ccc(S(=O)(=O)N2CCOCC2)cc1` is lower in “hERG current change (%, negative = inhibition) at 1uM” value: 9.21% for the first, -14.4% for the second.

Going from `O=c1cc(CN2CCC3(CC2)OCCO3)c2c(ccc3ccccc32)o1` to `O=C(NCc1ccc(F)cc1)C1CCCN(c2nc3ccsc3c(=O)s2)C1` (stereo not drawn), the “hERG current change (%, negative = inhibition) at 1uM” value falls from 6.73% to -6.94%.

Compared with `Cc1cccc(N(C(=O)c2snc(C(N)=O)c2N)C(C(=O)NCC2CCCO2)c2ccc3ncccc3c2)c1` (stereo not drawn), `Cc1ccc(S(=O)(=O)N2CCCC2CNC(=O)C(=O)Nc2ccccc2)cc1` (stereo not drawn) is higher in “hERG current change (%, negative = inhibition) at 1uM” value: 4.63% for the first, 5.36% for the second.

Going from `CCOC(=O)N1CCN(C(=O)Nc2ccc3nc(C)sc3c2)CC1` to `CCOC(=O)c1c(C)[nH]c(C(=O)Nc2ccc(C)c(Cl)c2)c1C`, the “hERG current change (%, negative = inhibition) at 1uM” value falls from 12.3% to 8.68%.

Going from `Cc1ccc(C)c(NC(=O)CN(C)C(=O)c2sccc2C)c1` to `CCC(CO)NS(=O)(=O)c1cc(-c2nn(C)c(=O)c3ccccc23)ccc1C` (stereo not drawn), the “hERG current change (%, negative = inhibition) at 1uM” value falls from 13.8% to 1.43%.

Going from `O=C1CN(C(=O)COc2ccccc2)CCN1` to `Cc1nn(CC(=O)N2CCc3ccccc3C2)c(C)c1Cl`, the “hERG current change (%, negative = inhibition) at 1uM” value falls from 14.2% to 0.55%.

First: COc1ccc(O)c(/C=N/n2c(-c3ccco3)csc2=Nc2cccnc2)c1
Second: O=C1/C(=C/c2cccnc2)Sc2ccccc21
The “hERG current change (%, negative = inhibition) at 1uM” value of the first is higher: 17.4% for the first, 9.58% for the second.

Compared with `O=C(CSc1nc(N2CCOCC2)nc(N2CCOCC2)n1)Nc1cccc(C(F)(F)F)c1`, `O=C(CNCc1ccco1)Nc1cc(S(=O)(=O)N2CCOCC2)ccc1N1CCCC1` is lower in “hERG current change (%, negative = inhibition) at 1uM” value: 12.3% for the first, 4.85% for the second.

Compared with `O=C(O)/C=C\C(=O)O.c1ccc(C(OCCN2CCN(c3ncccn3)CC2)c2ccccc2)cc1`, `O=C(O)c1ccccc1NC(=O)c1cc(-c2ccccc2)nc2ccccc12` is higher in “hERG current change (%, negative = inhibition) at 1uM” value: -4.59% for the first, 13.9% for the second.

First: CCOC(=O)CSc1ncnc2c1nnn2-c1ccc(F)cc1
Second: O=C(Nc1nc(-c2ccc(F)cc2)cs1)c1ccc(N2C(=O)CCC2=O)cc1
The “hERG current change (%, negative = inhibition) at 1uM” value of the first is lower: -3.23% for the first, 12.5% for the second.

Compared with `CC1(COS(N)(=O)=O)CCCCC1`, `COc1ccc(S(=O)(=O)Nc2ccc(F)c(Cl)c2)cc1OC` is higher in “hERG current change (%, negative = inhibition) at 1uM” value: 10.7% for the first, 11.8% for the second.

First: N#CC1=C(N)Oc2cc(O)ccc2C1c1ccc(Br)s1 (stereo not drawn)
Second: O=C(O)c1ccccc1Nc1ccc([N+](=O)[O-])cc1C(=O)O
The “hERG current change (%, negative = inhibition) at 1uM” value of the first is higher: 19.7% for the first, 12.7% for the second.

Going from `Cc1ccc(Cn2nnnc2CN2CCC(n3nnc4cc(C)ccc43)CC2)cc1` to `O=C(NC(=S)Nc1ccc2[nH]c(=O)[nH]c2c1)c1ccccc1[N+](=O)[O-]`, the “hERG current change (%, negative = inhibition) at 1uM” value rises from -22.6% to -4.59%.

For `CCN1C(=O)C(=O)N(CC(=O)Nc2ccccc2OC(F)F)C1=O`, the “hERG current change (%, negative = inhibition) at 1uM” value was 7.18%.
